B1: PhoQ; a variant is named by its letters at X, in order, P23837 (parent)
chain: MKKLLRLFFPLSLRVRFLLATAAVVLVLSLAYGMVALIGYSVSFDKTTFRLLRGESNLFYTLAKWENNKLHVELPENIDKQSPTMTLIYDENGQLLWAQRDVPWLMKMIQPDWLKSNGFHEIEADVNDTSLLLSGDHSIQQQLQEVREDDDDAEMTHSVAVNVYPATSRMPKLTIVVVDTIPVELKSSYMVWSWFIYVLSANLLLVIPLLWVAAWWSLRPIEALAKEVRELEEHNRELLNPATTRELTSLVRNLNRLLKSERERYDKYRTTLTDLTHSLKTPLXXLQXXLRSLRSEKMSVSDAEPVMLEQISRISQQIGYYLHRASMRGGTLLSRELHPVAPLLDNLTSALNKVYQRKGVNISLDISPEISFVGEQNDFVEVMGNVLDNACKYCLEFVEISARQTDEHLYIVVEDDGPGIPLSKREVIFDRGQRVDTLRPGQGVGLAVAREITEQYEGKIVAGESMLGGARMEVIFGRQHSAPKDE

The other results are listed elsewhere or left out.

In the test the parent is B1. In words: enrichment ratio after two sorts for PhoP signalling (ratio (wild type AVST 3.29)); higher = more functional. The following applies: with PhoP (E. coli).
For NWSR, the enrichment ratio was ≤ 0.25.
The result for WILV reads ≤ 0.25.
For PTDN the value was ≤ 0.25; for QMNF, 36.
Turning to ALHW, the enrichment ratio was ≤ 0.25.
The result for EIKA reads ≤ 0.25; that for KGFE, ≤ 0.25.
Take DSPG: the enrichment ratio is ≤ 0.25.
As for DAHM, the enrichment ratio is ≤ 0.25.
For HNYL the value was ≤ 0.25; for GWIS, ≤ 0.25; for FHRK, ≤ 0.25.
In the case of HYDL, the enrichment ratio was ≤ 0.25.
The result for MPHV reads ≤ 0.25.
The result for VQTL reads ≤ 0.25; that for PTWA, ≤ 0.25; that for MHYK, ≤ 0.25.
For MMNS the value was ≤ 0.25; for HQHV, ≤ 0.25.
Turning to NTFR, the enrichment ratio is ≤ 0.25.
For VFYL the value was ≤ 0.25; for QGAG, ≤ 0.25.
Turning to VQPP, the enrichment ratio was ≤ 0.25.
The result for PLAA reads ≤ 0.25; that for WDCY, ≤ 0.25.
FKVI: the enrichment ratio was ≤ 0.25.
The result for TGHA reads 4; that for ANNY, 6.43.
For the variant REGI, the enrichment ratio is ≤ 0.25.
For the variant DNMG, the enrichment ratio was ≤ 0.25.
For HPGA the value was ≤ 0.25; for KRNS, ≤ 0.25; for WPYY, ≤ 0.25.
The result for TNHN reads ≤ 0.25.
For LQQS the value was ≤ 0.25.
TTWT: the enrichment ratio worked out at 15.
As for RQPN, the enrichment ratio was ≤ 0.25.
The result for FEPL reads ≤ 0.25; that for NNAF, ≤ 0.25.
For SRQT the value was ≤ 0.25; for IITF, ≤ 0.25; for DRTS, ≤ 0.25.
The result for KPYN reads ≤ 0.25; that for LSKW, ≤ 0.25.
Take VPLC: the enrichment ratio was ≤ 0.25.
For MYAT the value was ≤ 0.25; for ACGL, 2.96.
The result for ASDN reads ≤ 0.25; that for MVCV, ≤ 0.25; that for LSYE, ≤ 0.25.
For AMFM the value was ≤ 0.25; for WMFF, ≤ 0.25; for RGMD, ≤ 0.25.
As to STED, the enrichment ratio was ≤ 0.25.
For MRFD, the enrichment ratio is ≤ 0.25.
The result for LALY reads ≤ 0.25; that for YFAQ, ≤ 0.25.
The result for WRWL reads ≤ 0.25; that for WCPF, ≤ 0.25; that for RCWM, ≤ 0.25.
The result for NYED reads ≤ 0.25; that for ACCC, 34.1.
As to CIIM, the enrichment ratio is ≤ 0.25.
For YWYK the value was ≤ 0.25; for SKYK, ≤ 0.25.
For LFPP, the enrichment ratio was ≤ 0.25.
For TWSW the value was ≤ 0.25; for SCWS, ≤ 0.25.
The result for SEPV reads ≤ 0.25.
For RLHI the value was ≤ 0.25.
For LLLT, the enrichment ratio was ≤ 0.25.
SMKE: the enrichment ratio is ≤ 0.25.
For FPQC the value was ≤ 0.25.
The result for PEHN reads ≤ 0.25; that for FWCI, ≤ 0.25; that for HRAG, ≤ 0.25.
With TINS, the enrichment ratio came to 9.25.
For AIEV the value was ≤ 0.25.
For ITLL the value was 7.22; for HSDM, ≤ 0.25; for FIGC, ≤ 0.25.
Consider DTSH, for which the enrichment ratio is ≤ 0.25.
Regarding RSLK, the enrichment ratio is ≤ 0.25.
As for RWPG, the enrichment ratio was ≤ 0.25.
The result for DSYL reads ≤ 0.25; that for VHWQ, ≤ 0.25.
For RVCF the value was ≤ 0.25; for KRWI, ≤ 0.25.
The result for FMPY reads ≤ 0.25; that for RVHH, ≤ 0.25.
For the variant IAWT, the enrichment ratio is ≤ 0.25.
For GVMR the value was ≤ 0.25.
For LVIC, the enrichment ratio is ≤ 0.25.
The result for FAKS reads ≤ 0.25.
The result for ETDT reads ≤ 0.25.
For the variant DIRE, the enrichment ratio is ≤ 0.25.
The result for LCWF reads ≤ 0.25; that for DMSI, ≤ 0.25; that for TTQC, 2.43.
For WEAW the value was ≤ 0.25; for NDCE, ≤ 0.25; for FSAS, ≤ 0.25.
For FDIR the value was ≤ 0.25; for FFVM, ≤ 0.25; for FIMN, ≤ 0.25.
Take KIHL: the enrichment ratio was ≤ 0.25.
For VREV the value was ≤ 0.25.
Turning to AGPM, the enrichment ratio is ≤ 0.25.
The result for YPFV reads ≤ 0.25.
The result for GNKE reads ≤ 0.25.
For MMQP the value was ≤ 0.25; for RITK, ≤ 0.25; for KIFC, ≤ 0.25.
For the variant HSPQ, the enrichment ratio is ≤ 0.25.
For NRWF the value was ≤ 0.25.
The result for WGVM reads ≤ 0.25; that for GESK, ≤ 0.25.
As to IYQD, the enrichment ratio is ≤ 0.25.
For ILKR the value was ≤ 0.25.
The result for YRFN reads ≤ 0.25; that for GRAC, ≤ 0.25; that for HHPW, ≤ 0.25.
For ILDW the value was ≤ 0.25.
Regarding RMFF, the enrichment ratio was ≤ 0.25.
The result for FACE reads ≤ 0.25.
The result for ECLI reads ≤ 0.25.
For GIMT the value was 12.6.
On to GAVV, for which the enrichment ratio is ≤ 0.25.
On to RMWK, for which the enrichment ratio was ≤ 0.25.
Consider NYYI, for which the enrichment ratio is ≤ 0.25.
The result for TSNA reads 10.2; that for RWGH, ≤ 0.25.
For KIHQ, the enrichment ratio is ≤ 0.25.
The result for AAAY reads ≤ 0.25; that for TPSH, ≤ 0.25; that for FKHM, ≤ 0.25.
For LFGD the value was ≤ 0.25.
The result for PVCD reads ≤ 0.25.
Take FCFQ: the enrichment ratio amounted to 0.361.
The result for AACI reads 12.2; that for PTQG, ≤ 0.25; that for PMTM, ≤ 0.25.
For NVWK the value was ≤ 0.25; for QGVV, ≤ 0.25.
As to VASA, the enrichment ratio is ≤ 0.25.
For RPKR the value was ≤ 0.25; for MKYD, ≤ 0.25.
For PVKP, the enrichment ratio was ≤ 0.25.
The result for YFNC reads ≤ 0.25.
As for EYQR, the enrichment ratio was ≤ 0.25.
For MWTD, the enrichment ratio is ≤ 0.25.
For TDES the value was ≤ 0.25; for GEQC, ≤ 0.25.

Values taken from a collection of fitness landscapes (doi:10.1126/science.1257360).
